T1: human IL-2Rαβγc (on Kit225-STAT5 reporter cells, NK-92 cells, primary Treg cells) (human, UniProt P01589 22-272; P14784 27-551; P31785 23-369)
T1 sequence (looked up) 1: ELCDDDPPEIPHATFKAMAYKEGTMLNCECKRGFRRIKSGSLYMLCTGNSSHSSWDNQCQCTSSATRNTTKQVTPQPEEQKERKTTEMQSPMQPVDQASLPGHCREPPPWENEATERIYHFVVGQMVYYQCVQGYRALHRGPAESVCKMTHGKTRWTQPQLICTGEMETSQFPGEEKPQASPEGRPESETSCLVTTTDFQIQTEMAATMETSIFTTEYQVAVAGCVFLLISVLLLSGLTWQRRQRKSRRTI
T1 sequence (looked up) 2: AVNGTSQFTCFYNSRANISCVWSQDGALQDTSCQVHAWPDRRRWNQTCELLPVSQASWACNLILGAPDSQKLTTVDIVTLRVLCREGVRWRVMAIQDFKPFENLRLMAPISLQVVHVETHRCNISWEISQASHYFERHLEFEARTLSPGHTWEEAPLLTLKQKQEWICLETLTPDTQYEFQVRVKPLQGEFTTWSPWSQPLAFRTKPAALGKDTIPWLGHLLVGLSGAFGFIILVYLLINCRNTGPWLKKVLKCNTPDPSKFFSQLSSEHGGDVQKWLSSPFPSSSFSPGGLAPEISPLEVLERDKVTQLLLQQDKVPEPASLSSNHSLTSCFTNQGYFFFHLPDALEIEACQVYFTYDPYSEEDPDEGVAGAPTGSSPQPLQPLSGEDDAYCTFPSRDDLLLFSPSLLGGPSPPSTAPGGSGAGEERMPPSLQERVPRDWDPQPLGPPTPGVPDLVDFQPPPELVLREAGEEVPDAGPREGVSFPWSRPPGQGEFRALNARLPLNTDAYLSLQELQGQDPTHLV
T1 sequence (looked up) 3: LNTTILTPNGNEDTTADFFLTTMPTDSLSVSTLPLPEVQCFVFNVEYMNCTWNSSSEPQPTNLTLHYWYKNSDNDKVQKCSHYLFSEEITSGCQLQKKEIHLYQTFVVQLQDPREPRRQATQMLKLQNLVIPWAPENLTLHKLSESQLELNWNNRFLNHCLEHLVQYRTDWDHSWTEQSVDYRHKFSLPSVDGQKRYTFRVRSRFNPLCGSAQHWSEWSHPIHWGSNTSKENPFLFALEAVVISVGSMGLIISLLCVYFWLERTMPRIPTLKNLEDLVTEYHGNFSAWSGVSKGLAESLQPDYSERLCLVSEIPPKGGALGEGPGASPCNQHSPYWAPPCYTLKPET

T2: Human IL-2Rβ (Table 7B) (human, UniProt P14784 27-239, limits assumed)
T2 sequence (looked up): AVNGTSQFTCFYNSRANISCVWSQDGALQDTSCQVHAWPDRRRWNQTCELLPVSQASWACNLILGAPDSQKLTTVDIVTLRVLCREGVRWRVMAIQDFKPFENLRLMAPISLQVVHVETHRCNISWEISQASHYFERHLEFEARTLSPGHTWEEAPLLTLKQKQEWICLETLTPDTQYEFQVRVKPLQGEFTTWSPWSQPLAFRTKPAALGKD

T3: Cynomolgus IL-2Rα, His tag (Table 10) (cynomolgus monkey, UniProt H6WS54 22-213)
T3 construct: not shown: polyhistidine tag (tag cell printed once at r13)
T3 sequence: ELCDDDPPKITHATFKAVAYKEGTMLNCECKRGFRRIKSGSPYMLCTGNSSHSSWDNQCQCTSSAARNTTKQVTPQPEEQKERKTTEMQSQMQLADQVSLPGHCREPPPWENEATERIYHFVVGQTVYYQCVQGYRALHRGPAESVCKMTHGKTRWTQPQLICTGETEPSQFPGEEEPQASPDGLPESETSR

T4: Mouse IL-2Rβ, His tag (Table 10) (mouse, UniProt P16297 27-240, limits assumed)
T4 construct: not shown: polyhistidine tag (tag cell printed once at r17)
T4 sequence (looked up): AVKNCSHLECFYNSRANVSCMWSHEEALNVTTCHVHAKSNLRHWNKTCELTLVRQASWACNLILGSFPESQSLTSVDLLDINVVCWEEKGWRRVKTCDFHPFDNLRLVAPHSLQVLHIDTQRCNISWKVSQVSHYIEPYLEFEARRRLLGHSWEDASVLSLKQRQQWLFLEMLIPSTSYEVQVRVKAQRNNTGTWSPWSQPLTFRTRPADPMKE

T5: Rat IL-2Rα, His tag (Table 10) (rat, UniProt P26897 22-235, limits assumed)
T5 construct: not shown: polyhistidine tag (tag cell printed once at r13)
T5 sequence (looked up): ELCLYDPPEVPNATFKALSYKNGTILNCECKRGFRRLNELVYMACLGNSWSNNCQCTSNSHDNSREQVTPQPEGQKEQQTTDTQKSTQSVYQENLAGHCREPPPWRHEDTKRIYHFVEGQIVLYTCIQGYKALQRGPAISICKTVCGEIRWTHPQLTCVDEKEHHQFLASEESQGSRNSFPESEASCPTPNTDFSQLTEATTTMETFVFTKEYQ

T6: Human IL-2Rα, His tag (Table 10) (human, UniProt P01589 22-213, limits assumed)
T6 construct: not shown: polyhistidine tag
T6 sequence (looked up): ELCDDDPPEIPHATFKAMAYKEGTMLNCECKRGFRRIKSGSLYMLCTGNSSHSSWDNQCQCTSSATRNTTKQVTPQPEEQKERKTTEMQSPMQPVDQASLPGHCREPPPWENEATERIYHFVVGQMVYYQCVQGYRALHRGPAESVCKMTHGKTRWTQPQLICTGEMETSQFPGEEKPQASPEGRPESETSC

B1: Ald-6HIS (ligand)
chain: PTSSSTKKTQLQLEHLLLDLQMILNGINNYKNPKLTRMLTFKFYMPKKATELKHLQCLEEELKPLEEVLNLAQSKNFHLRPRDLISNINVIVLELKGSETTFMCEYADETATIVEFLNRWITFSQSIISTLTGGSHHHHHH
notes: also called aldesleukin with carboxyl-terminus HIS6-tag linked via a Gly-Gly-Ser linker
B2: Aldesleukin (DesA1_IL-2_C124S) (ligand)
chain: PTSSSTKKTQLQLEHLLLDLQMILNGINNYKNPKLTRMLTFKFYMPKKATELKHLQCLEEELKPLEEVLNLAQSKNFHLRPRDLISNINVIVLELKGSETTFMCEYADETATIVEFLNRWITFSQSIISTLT

What was measured:
[1] = biological target: T1, human IL-2Rαβγc (on Kit225-STAT5 …); assay: cell-based or functional assay
Human IL-2Rβ (Table 7B) = biological target: T2, Human IL-2Rβ (Table 7B); assay: SPR (Biacore T200)
[2] = biological target: T3, Cynomolgus IL-2Rα, His tag (Table 10); assay: SPR (Biacore T200), receptor captured on anti-histidine surface
Experimental: (§1) A Surface Plasmon Resonance (SPR) assay on a Biacore T200 (GE Healthcare) instrument was used to determine the monovalent affinities of pegylated aldesleukin variants against polyhistidine-tagged or Fc-tagged IL-2 Receptors. Biacore T200 Evaluation Software was used to fit each titration series to a 1:1 binding model or steady state affinity. The association (kₒₙ, M⁻¹ s⁻¹) and dissociation (koff, s⁻¹) rate constants were determined for each set of titrations and used to calculate the dissociation constant, KD=koff/kₒₙ, of each sample against each receptor. koff/kₒₙ values are not reported herein.
(§2) To measure the affinity of CON1 and aldesleukin for IL-2R subunits, receptors were captured on either an anti-histidine or anti-hu Fc antibody surface. […] CON1 has a six-fold lower affinity for Human and Cynomolgus/Rhesus IL-2-Rβ than aldesleukin.

[3] = biological target: T4, Mouse IL-2Rβ, His tag (Table 10); assay: as above
Experimental: as §1, §2

[4] = biological target: T5, Rat IL-2Rα, His tag (Table 10); assay: as above
Experimental: as §1, §2

[5] = biological target: T6, Human IL-2Rα, His tag (Table 10); assay: as above
Experimental: as §1, §2

| Binder | NK-92 EC50 Fold Change [1] | NK-92 cell assay EC50 [1] | Kd (Human IL-2Rβ (Table 7B)) | koff (Human IL-2Rβ (Table 7B)) | kon (Human IL-2Rβ (Table 7B)) | KD/KD (human) [2] | Kd [2] | binding result [3] | KD/KD (human) [4] | Kd [4] | KD/KD (human) [5] | Kd [5] |
| --- | --- | --- | --- | --- | --- | --- | --- | --- | --- | --- | --- | --- |
| B1 | 1 fold | 0.007 nM | 1200 nM | 0.31 s⁻¹ | 250000 M⁻¹ s⁻¹ |  |  |  |  |  |  |  |
| B2 |  |  |  |  |  | 0.6 ratio | 9.9 nM | no binding | 1.8 ratio | 29 nM | 1 ratio | 16 nM |

From patent US20210340207A1 (Merck Sharp & Dohme, published 2021)
